Reference: the supplement of paper PMC12217912
Some of the results follow. The full chains were built here from the parent and the listed change. Values near 0.05 are background.

B1: TEV protease; numbered along this chain (parent)
chain: MGESLFKGPRDYNPISSSICHLTNESDGHTTSLYGIGFGPFIITNKHLFRRNNGTLVVQSLHGVFKVKDTTTLQQHLVDGRDMIIIRMPKDFPPFPQKLKFREPQREERICLVTTNFQTKSMSSMVSDTSCTFPSGDGIFWKHWIQTKDGQCGSPLVSTRDGFIVGIHSASNFTNTNNYFTSVPKNFMELLTNQEAQQWVSGWRLNADSVLWGGHKVFMVKPEEPFQPVKEATQL

Variants of: B1
Experiment: raw area under fraction-flipped curve 0-4 h after induction (AUC4h, not background-subtracted), DNA-recorder readout of cleavage of the substrate (dimensionless); higher = more cleavage of the substrate by the protease variant
Settings: temperature: 34 °C; time window: 0-4 h after rhamnose induction
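Note: Bxb1 expression induced with 0.2% (w/v) L-rhamnose at OD600 near 0.5, cultures sampled hourly, flipped fraction per protease–substrate barcode pair counted by paired-end Illumina sequencing.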

Row | Variant | area with substrate ENLYFQC | area with substrate ENLYFQD | area with substrate ENLYFQF | area with substrate ENLYFQH | area with substrate ENLYFQL | area with substrate ENLYFQR | area with substrate ENLYFQS | area with substrate ENLYFQT | area with substrate ENLYFQY | area with substrate ENLYFQG
1 | MGESLFKGPRDYNPISSSICHLTNESDGHPTSLYGIGFGPFIITNKHLFRRNNGTLVVQSLHGVFKVKDTTTLQQHLVDGRDMIIIRMPKDFPPFPQKLKFREPQREERICLVTTNFQTKSMSSMVSDTSCTFPSGDGIFWKHWIQTKDGQCGSPLVSTRDGFIVGIHSASNFTNTNNYFTSVPKNFMELLTNQEAQQWVSGWRLNADSVLWGGHKVFMVKPEEPFQPVKEATQL [T30P] | 0.0923 | 0.0621 | 0.0756 | 0.0905 | 0.0537 | 0.0669 | 0.0893 | 0.0718 | 0.0409 | 
2 | MGESLFKGPRDYNPISSSICHLTNESDGHTTSLYGIGFGPFIITNKHLFRRNNGTLVVQSLHGVFKVKDTTTLQQHLVDGRDMIIIRMPKDFPPFPQKLKFREPSREERICLVTTNFQTKSMSSMVSDTSCTFPSGDGIFWKHWIQTKDGQCGSPLVSTRDGFIVGIHSASNFTNTNNYFTSVPKNFMELLTNQEAQQWVSGWRLNADSVLWGGHKVFMVKPEEPFQPVKEATQL [Q105S] | 0.139 |  |  | 0.0662 | 0.0573 | 0.0411 | 0.101 | 0.0692 |  | 0.121
3 | MGESLFKGPRDYNPISSSICHLTNESDGHTTSLYGIGFGPFIITNKHLFRRNNGTLVVQSLHGVFGVKDTTTLQQHLVDGRDMIIIRMPKDFPPFPQKLKFREPQREERICLVTTNFQTKSMSSMVSDTSCTFPSGDGIFWKHWIQTKDGQCGSPLVSTRDGFIVGIHSASNFTNTNNYFTSVPKNFMELLTNQEAQQWVSGWRLNADSVLWGGHKVFMVKPEEPFQPVKEATQL [K66G] |  | 0.0691 |  | 0.0839 | 0.0683 | 0.0598 | 0.101 | 0.0791 |  | 0.102
4 | MGESLFKGPRDYNPISSSICHLTNESDGHTTSLYGIGFGPFIITNKHLFRRNNGTLVVQSLHGVFKVKDTTTLQQHLVDGRDMIIIRMPKDFPPFPQKLKFREPQREERICLVTTNFQTKSMSSMVSDTSCTFPSGDGIFWKHWIQTKDGQCGSPLVSTRDGFIVGIHSASNFTNTNNYFTSVPKNFMELLTNQEAQQWVSGMRLNADSVLWGGHKVFMVKPEEPFQPVKEATQL [W203M] | 0.0706 |  |  | 0.053 | 0.0497 | 0.0657 | 0.0707 |  |  | 0.0649
5 | MGESLFKGPRDYNPISSSICHLTNESDGHTTSLYGIGFGPFIITNKHLFRRNNGTLVVQSLHGVFKVKDTTTLQQHLVDGRDMIIIRMPKDFPPDPQKLKFREPQREERICLVTTNFQTKSMSSMVSDTSCTFPSGDGIFWKHWIQTKDGQCGSPLVSTRDGFIVGIHSASNFTNTNNYFTSVPKNFMELLTNQEAQQWVSGWRLNADSVLWGGHKVFMVKPEEPFQPVKEATQL [F95D] | 0.0469 |  |  |  | 0.0512 | 0.0454 | 0.0451 |  |  | 
6 | MGESLFKGPRDYNPISSSICHLTNESDGHTTSLYGIGFGPFIITNKHLFRRNNGTLVVQSLHGVFKVKDTTTLQQHLVDGRDMIIIRMPKDFPPFPQKLKFREPQREERICLVTTNFQTKSMSSMVSDTSCTFPSGDGIYWKHWIQTKDGQCGSPLVSTRDGFIVGIHSASNFTNTNNYFTSVPKNFMELLTNQEAQQWVSGWRLNADSVLWGGHKVFMVKPEEPFQPVKEATQL [F140Y] |  | 0.0597 |  | 0.0722 | 0.048 | 0.0559 | 0.0904 |  | 0.0561 | 
7 | MGESWFKGPRDYNPISSSICHLTNESDGHTTSLYGIGFGPFIITNKHLFRRNNGTLVVQSLHGVFKVKDTTTLQQHLVDGRDMIIIRMPKDFPPFPQKLKFREPQREERICLVTTNFQTKSMSSMVSDTSCTFPSGDGIFWKHWIQTKDGQCGSPLVSTRDGFIVGIHSASNFTNTNNYFTSVPKNFMELLTNQEAQQWVSGWRLNADSVLWGGHKVFMVKPEEPFQPVKEATQL [L5W] | 0.136 |  |  |  | 0.0598 | 0.0674 | 0.119 | 0.0651 | 0.0758 | 
8 | MGESNFKGPRDYNPISSSICHLTNESDGHTTSLYGIGFGPFIITNKHLFRRNNGTLVVQSLHGVFKVKDTTTLQQHLVDGRDMIIIRMPKDFPPFPQKLKFREPQREERICLVTTNFQTKSMSSMVSDTSCTFPSGDGIFWKHWIQTKDGQCGSPLVSTRDGFIVGIHSASNFTNTNNYFTSVPKNFMELLTNQEAQQWVSGWRLNADSVLWGGHKVFMVKPEEPFQPVKEATQL [L5N] |  | 0.064 |  |  |  | 0.0451 | 0.123 | 0.0629 |  | 
9 | MGESLFKGPRDYNPISSSICHLTNESDGHTTSLYGIGFGPFIITNKHLFRRNNGTLVVQSLHGVFKVKDTTTLQQHLVDGRDMIIIRMPKDFPPFPQKLKFREPQREERICLVTTNFQTKSMSSMVSDTSCTFPSGDGIFWKHWIQTKDGQCGSPLVSTRDGFIVGIHSASNFTNTNNYFTSVPKGFMELLTNQEAQQWVSGWRLNADSVLWGGHKVFMVKPEEPFQPVKEATQL [N186G] | 0.109 |  |  |  |  |  | 0.108 |  |  | 
10 | MGESLFKGPRDYNPISSSICHLTNESDGHTTSLYGIGFGPFIITNKHLFRRNNGTLVVQSLHGVFKVKDTTTLQQHLVDGRDMIIIRMPKDFPPFPQKLKFREPQREERICLVTTNFQTKSMSSMVSDTSCTFPSGDGIFWKHWIQTKDGQCGSPLVSTRDGFIVGIHSASNFTNTNNYFTSVPKNFMELLTLQEAQQWVSGWRLNADSVLWGGHKVFMVKPEEPFQPVKEATQL [N193L] |  | 0.0567 |  | 0.0686 | 0.0531 | 0.0514 | 0.0879 |  | 0.0825 | 

Same assay, conditions: temperature: 34 °C; time window: 0-4 h after rhamnose induction

Row | Variant | area with substrate ENLYFQI | area with substrate ENLYFQM | area with substrate ENLYFQP | area with substrate ENLYFQV | area with substrate ENLYFQW | area with substrate ENLYFQK | area with substrate ENLYFQN | area with substrate ENLYFQQ
11 | MGESLFKGPRDYNPISSSICHLTNESDGHTTSLYGIGFGPFIITNKHLFRRNNGTLVVQSLHGVFKVKDTTTLQQHLVDGRDMIIIRMPKDFPPFPQKLKFREPSREERICLVTTNFQTKSMSSMVSDTSCTFPSGDGIFWKHWIQTKDGQCGSPLVSTRDGFIVGIHSASNFTNTNNYFTSVPKNFMELLTNQEAQQWVSGWRLNADSVLWGGHKVFMVKPEEPFQPVKEATQL [Q105S] | 0.0555 | 0.0873 | 0.0591 | 0.0538 | 0.0547 |  |  | 
12 | MGESLFKGPRDYNPISSSICHLTNESDGHTTSLYGIGFGPFIITNKHLFRRNNGTLVVQSLHGVFGVKDTTTLQQHLVDGRDMIIIRMPKDFPPFPQKLKFREPQREERICLVTTNFQTKSMSSMVSDTSCTFPSGDGIFWKHWIQTKDGQCGSPLVSTRDGFIVGIHSASNFTNTNNYFTSVPKNFMELLTNQEAQQWVSGWRLNADSVLWGGHKVFMVKPEEPFQPVKEATQL [K66G] | 0.0618 | 0.0889 |  | 0.0619 | 0.0647 | 0.0622 | 0.0733 | 
13 | MGESLFKGPRDYNPISSSICHLTNESDGHTTSLYGIGFGPFIITNKHLFRRNNGTLVVQSLHGVFKVKDTTTLQQHLVDGRDMIIIRMPKDFPPFPQKLKFREPQREERICLVTTNFQTKSMSSMVSDTSCTFPSGDGIFWKHWIQTKDGQCGSPLVSTRDGFIVGIHSASNFTNTNNYFTSVPKNFMELLTNQEAQQWVSGMRLNADSVLWGGHKVFMVKPEEPFQPVKEATQL [W203M] |  | 0.0606 |  |  |  | 0.0621 |  | 
14 | MGESLFKGPRDYNPISSSICHLTNESDGHTTSLYGIGFGPFIITNKHLFRRNNGTLVVQSLHGVFKVKDTTTLQQHLVDGRDMIIIRMPKDFPPDPQKLKFREPQREERICLVTTNFQTKSMSSMVSDTSCTFPSGDGIFWKHWIQTKDGQCGSPLVSTRDGFIVGIHSASNFTNTNNYFTSVPKNFMELLTNQEAQQWVSGWRLNADSVLWGGHKVFMVKPEEPFQPVKEATQL [F95D] |  |  |  | 0.0421 |  |  | 0.0441 | 
15 | MGESLFKGPRDYNPISSSICHLTNESDGHTTSLYGIGFGPFIITNKHLFRRNNGTLVVQSLHGVFKVKDTTTLQQHLVDGRDMIIIRMPKDFPPFPQKLKFREPQREERICLVTTNFQTKSMSSMVSDTSCTFPSGDGIYWKHWIQTKDGQCGSPLVSTRDGFIVGIHSASNFTNTNNYFTSVPKNFMELLTNQEAQQWVSGWRLNADSVLWGGHKVFMVKPEEPFQPVKEATQL [F140Y] | 0.0528 |  |  |  |  | 0.0667 |  | 0.0635
16 | MGESWFKGPRDYNPISSSICHLTNESDGHTTSLYGIGFGPFIITNKHLFRRNNGTLVVQSLHGVFKVKDTTTLQQHLVDGRDMIIIRMPKDFPPFPQKLKFREPQREERICLVTTNFQTKSMSSMVSDTSCTFPSGDGIFWKHWIQTKDGQCGSPLVSTRDGFIVGIHSASNFTNTNNYFTSVPKNFMELLTNQEAQQWVSGWRLNADSVLWGGHKVFMVKPEEPFQPVKEATQL [L5W] | 0.0511 | 0.116 |  | 0.0579 | 0.0637 | 0.0638 |  | 
17 | MGESNFKGPRDYNPISSSICHLTNESDGHTTSLYGIGFGPFIITNKHLFRRNNGTLVVQSLHGVFKVKDTTTLQQHLVDGRDMIIIRMPKDFPPFPQKLKFREPQREERICLVTTNFQTKSMSSMVSDTSCTFPSGDGIFWKHWIQTKDGQCGSPLVSTRDGFIVGIHSASNFTNTNNYFTSVPKNFMELLTNQEAQQWVSGWRLNADSVLWGGHKVFMVKPEEPFQPVKEATQL [L5N] |  | 0.101 | 0.0551 |  |  |  | 0.0776 | 0.087
18 | MGESLFKGPRDYNPISSSICHLTNESDGHTTSLYGIGFGPFIITNKHLFRRNNGTLVVQSLHGVFKVKDTTTLQQHLVDGRDMIIIRMPKDFPPFPQKLKFREPQREERICLVTTNFQTKSMSSMVSDTSCTFPSGDGIFWKHWIQTKDGQCGSPLVSTRDGFIVGIHSASNFTNTNNYFTSVPKGFMELLTNQEAQQWVSGWRLNADSVLWGGHKVFMVKPEEPFQPVKEATQL [N186G] | 0.0615 |  |  |  |  |  |  | 
19 | MGESLFKGPRDYNPISSSICHLTNESDGHTTSLYGIGFGPFIITNKHLFRRNNGTLVVQSLHGVFKVKDTTTLQQHLVDGRDMIIIRMPKDFPPFPQKLKFREPQREERICLVTTNFQTKSMSSMVSDTSCTFPSGDGIFWKHWIQTKDGQCGSPLVSTRDGFIVGIHSASNFTNTNNYFTSVPKNFMELLTLQEAQQWVSGWRLNADSVLWGGHKVFMVKPEEPFQPVKEATQL [N193L] | 0.0649 | 0.0675 | 0.065 | 0.0771 |  | 0.0653 | 0.0566 | 
